This passage reports binding signal results from publication PMC12136788.

Some of the results follow.

B1: chr2:128193554:128193655:+|3pUTR|ENSG00000136731|msi1|total|mutant (ssRNA)
RNA: GGGAGUUCUACAGUCCGACGAUCCCUUGUCAAGGCUCUGCCUGAAUGAGUUUUCAUCUGAUUGUGGGGACCAAGUCCCUGAGCCGAGGGCCAAGAGCCCGGGACAGGGGGAAGAGACUGGCCCAGGUGGCCGGGAGGAAAGAACAACAGAGGAUUGAGCAUCA
B2: chr7:139716074:139716127:-|CDS|ENSG00000064393|msi1_unk|FALSE|overlapping (ssRNA)
RNA: GGGAGUUCUACAGUCCGACGAUCGAAGCAAAACAAGUUUAGCCCCUUGCCCCUCAAAUACAUUCGCCCAGUUCUCCAGCAGGUAGCCACAGCCCUGAUGAAACUCAAAAGCCUAGGUCUUAUCCACGCUGACCUCAAACCAGACAACAGAGGAUUGAGCAUCA
B3: chr11:73394502:73394603:+|CDS|ENSG00000054967|msi1|FALSE|unique (ssRNA)
RNA: GGGAGUUCUACAGUCCGACGAUCCACCAUCUCCACACCGUGCAGGGCCUGGCCUCGCUCUCUGGCCCCUGCUGCUCCCGCUGUAGCCAGAAGAAGUGGCCCGAGGUGCUGCUGUCCCCUGAGGCUGUAGCCGCCACUACUCCUCAACAGAGGAUUGAGCAUCA
B4: chr17:69546800:69546959:+|3pUTR|ENSG00000108984|unk|FALSE|unique (ssRNA)
RNA: GGGAGUUCUACAGUCCGACGAUCUCAACUUCAUAGGACUUUUUUUUUUUUUAACUUUUCAAAUGGAAGGUGCAGUUUUCAAUUAGGCCUCUGAAAAUUUACAUAGUCAGAUGGAAAAAUGCCAGAGUAAAAUCUAGGAAGAAGCAACAGAGGAUUGAGCAUCA
B5: ENSG00000117868:stop:overlap|stop_codon|ENSG00000117868|stop_codon|NA|stop_codon (ssRNA)
RNA: GGGAGUUCUACAGUCCGACGAUCAAGGCUGGACCCAGUGGUAUGACCUCACGGAAGAUGGGACGAGGCCUCAGGCGAUGACAUAGCCGCAGCAGGCAGGAGGCGUCCUCUUCAGCGUAGCUCUCCACCUCUACCCGGAACACACAACAGAGGAUUGAGCAUCA
B6: ENSG00000070961:be:win_3451|CDS|ENSG00000070961|bound_else_gene|NA|bound_elsewhere_windowed (ssRNA)
RNA: GGGAGUUCUACAGUCCGACGAUCAGGAUAGAAGAUUCAGAGCCUCAUAUCCCCCUUAUUGAUGACACUGAUGCCGAAGAUGAUGCUCCUACAAAACGUAACUCCAGUCCUCCACCCUCUCCCAACAAAAAUAACAAUGCUGUUCAACAGAGGAUUGAGCAUCA
B7: chr9:24545423:24545649:-|CDS|ENSG00000205442|control|control|control (ssRNA)
RNA: GGGAGUUCUACAGUCCGACGAUCCCUGCCCCUCUCAGCCUUCCAUGGAGUCAAAGGCUGUUUAGAAUGUGACCCCAAAUUUAUAGAGGAUGUUGGCUCCUUGCUGGGAAAUCUGAUACCUUCAGAAGUCCCCGGCCGAACUCACAACAGAGGAUUGAGCAUCA
B8: chr2:48379045:48379146:+|3pUTR|ENSG00000170802|unk|total|mutant (ssRNA)
RNA: GGGAGUUCUACAGUCCGACGAUCCCUUAUCCUCUUUUCUGAUGCCGCAUAAAAAUUGUCCCGGUUUGAGUUAUAACUGCCAGCCGAUGACCAGUCACAAGUGAACCACUUCUCAGUUGCCAAUCUUUGCUCAUAUUAAAAACACAACAGAGGAUUGAGCAUCA
B9: chr19:45844017:45844118:-|CDS|ENSG00000125755|msi1|total|mutant (ssRNA)
RNA: GGGAGUUCUACAGUCCGACGAUCGCCCGCCAGAGACCCAUGUUCAUGUCUGAGGUGAUCCAGGCCUAUGAAACUCUGCAUGGCCGGUCAUUGUCCUCCCCCCUCCCCCUGCCUUCUCUUCACUGGCCAGUCUGCUCUUUCUUUCAACAGAGGAUUGAGCAUCA
B10: chr19:12791443:12791544:+|5pUTR|ENSG00000171223|unk|FALSE|unique (ssRNA)
RNA: GGGAGUUCUACAGUCCGACGAUCGGGGGGCGCGGGGGCCCGGCUCCGGCGACGGCCAAUCGGAGCGCACUUCCGUGGCUGACUAGCGCGGUAUAAAGGCGUGUGGCUCAGGCUGAGCGGCUGGGACCUUGAGAGCGGCCAGGCCAACAGAGGAUUGAGCAUCA
B11: ENSG00000071537:stop:overlap|stop_codon|ENSG00000071537|stop_codon|NA|stop_codon (ssRNA)
RNA: GGGAGUUCUACAGUCCGACGAUCAUACAUUUGGAGCUCUUGGGGGCAAUCUAAUAGCCCACAUGGUUUUGGUAAGUAGACUUUAGUGGAAGGCUAAUAAUAUUAACAUCAGAAGAAUUUGUGGUUUAUAGCGGCCACAACUUUCAACAGAGGAUUGAGCAUCA
B12: chr12:12643182:12643283:+|3pUTR|ENSG00000111269|unk|total|mutant (ssRNA)
RNA: GGGAGUUCUACAGUCCGACGAUCCUGGAGUUGUGCACAGCACCGCAGCCCGUGGGCCUGGCUGGGGGUGCAGAAGGGCAGGGCCGUUCUUUCCAUUUCCCCUUGCAGCUACACUUACUUUCUCCCUGACUACCAAAUGGAGUGCAACAGAGGAUUGAGCAUCA
B13: ENSG00000070961:be:win_3901|3pUTR|ENSG00000070961|bound_else_gene|NA|bound_elsewhere_windowed (ssRNA)
RNA: GGGAGUUCUACAGUCCGACGAUCAAGUGACCUGUGGAUCAUCAGUAGUACCCAAGCAUGGUCCUGAACAGUGUAUUAGCAGAGCUUUAGUUUAUCUCAGUCCUGGAUGGGAGAGAGAGGGAGGAGUAAAACUGGGCAAGACAACAACAGAGGAUUGAGCAUCA
B14: chr1:165890246:165890361:+|CDS|ENSG00000143179|unk|FALSE|unique (ssRNA)
RNA: GGGAGUUCUACAGUCCGACGAUCCUCCUGGGGCAGAAUGAGGUGGACUAUCGCCAGAAGCAGGUGGUCAUCCUGAGCCAGGAUAGCUUCUACCGUGUCCUUACCUCGGAGCAGAAGGCCAAAGCCCUGAAGGGCCAGUUCAACCAACAGAGGAUUGAGCAUCA
B15: chr6:142752714:142752806:-|3pUTR|ENSG00000010818|msi1_unk|FALSE|overlapping (ssRNA)
RNA: GGGAGUUCUACAGUCCGACGAUCUUUUCUUUACUUUGCUUAUAUUCUUAUAAGCAUUUUUUAGCAGUAAUUUGUACAUAUUUUAGAAUUUGUGUAUCUGCUUUGUAAUAAAUGUAAUUUCUUUCCUUUUUUGGACACUUGGAUCAACAGAGGAUUGAGCAUCA
B16: chr11:108106880:108106981:+|3pUTR|ENSG00000166266|msi1|FALSE|unique (ssRNA)
RNA: GGGAGUUCUACAGUCCGACGAUCUUAGUGGUAUGGCAAUAAGACACUUCAGAGGCUAUCUUAACCUCUGAAUACCCAUCUUCUAGUUUAAAGACAGAGACAUCCCAUCUGGAAAAUGUUAACUUGUGUUGCCAUCUCGUUGCCCAACAGAGGAUUGAGCAUCA
B17: chr7:130166276:130166377:-|3pUTR|ENSG00000146842|msi1|FALSE|unique (ssRNA)
RNA: GGGAGUUCUACAGUCCGACGAUCUCUCUGAGCCACUGACUCUUCUGAAAUAAAAUACACAUGGGUGUAUGUUACAGACUCUUUAGAUUUAACAGAAAAUGUAGCUGUUAUGAAAUGUAAUUGUAAAAAUAUGUCCCGUAUCUUCAACAGAGGAUUGAGCAUCA
B18: ENSG00000176396:stop:overlap|stop_codon|ENSG00000176396|stop_codon|NA|stop_codon (ssRNA)
RNA: GGGAGUUCUACAGUCCGACGAUCCUGAAGUUAUCAACCCUCUGAUAGAAGAACUUGGUUGCGAUAAGUUUAUCAAUAGAGAAUAGUUAUGUGGUGACACUACUUCAAGAGAACCUCUGCAUUCCAGUCAUACCAAUCCUGCAACAACAGAGGAUUGAGCAUCA
B19: chr5:91374913:91375023:-|CDS|ENSG00000113369|unk|FALSE|bound_elsewhere (ssRNA)
RNA: GGGAGUUCUACAGUCCGACGAUCGAGACGUGGAAUGGCAAGUUGCUGAAAAUUCCACCAGUUUCUCCCUCUAUCCUCGACUGUAGUAUAAUCCGCGUGGAAUAUUCACUAAUGGUAUGUACACAUUUAAGAGGUUUUUUCCUUCAACAGAGGAUUGAGCAUCA
B20: chr1:151291320:151291421:+|3pUTR|ENSG00000143373|unk|FALSE|unique (ssRNA)
RNA: GGGAGUUCUACAGUCCGACGAUCAAUAUUUUGUUAAUUCCUGUCUCUCCAACCUGAAGAAGAAGAGCAUUUGAGGAUUAUUCUAGUUAUUUGCAACCUCCCUUUGGGUUUGGCCCUGGAGUCCUAGUAGAGUGGACCCUCCAUCAACAGAGGAUUGAGCAUCA
B21: chr3:138622260:138622368:+|CDS|ENSG00000158234|unk|FALSE|unique (ssRNA)
RNA: GGGAGUUCUACAGUCCGACGAUCAUUAGUGGGCAAAGAAACAUUCUAUGUUGGAGCUGCAAAGACAAAAGCGACCAUAAAUAUAGACGCUAUCAGUGGUUUUGCUUAUGAAUAUACUCUGGAAAUUAAUGGGAAAAGUCUCAACAACAGAGGAUUGAGCAUCA
B22: chr15:40779088:40779310:-|CDS|ENSG00000104129|control|control|control (ssRNA)
RNA: GGGAGUUCUACAGUCCGACGAUCGAGAGGACCCAGAAACUUGAUGAGAAAAGGAAGAAAGUGAAGCUUGGUAGGUGCCAUCAUAGUGCUCGGUGGCCUGUGGUUUCCUGUGGUCAUUUUCAUUCAUCUCCCUCACCUGAAGCUCAACAGAGGAUUGAGCAUCA

For this assay, the target named is MSI1 full-length (mouse, UniProt Q61474 1-362). The assay is described as follows: nsRBNS (natural sequence RNA bind-n-seq); RBNS binding buffer (assumed for nsRBNS): 25 mM Tris pH 7.5, 150 mM KCl, 3 mM MgCl2, 0.01% Triton X-100, 500 ug/ml BSA, 20 U/ml SUPERase-In, 4 C; UNK is unkempt and MSI1 is Musashi-1; names of the RNAs are library labels; protein concentration not given here; high values mean tight binding.
UniProt Q61474, sequence (Q61474 whole entry): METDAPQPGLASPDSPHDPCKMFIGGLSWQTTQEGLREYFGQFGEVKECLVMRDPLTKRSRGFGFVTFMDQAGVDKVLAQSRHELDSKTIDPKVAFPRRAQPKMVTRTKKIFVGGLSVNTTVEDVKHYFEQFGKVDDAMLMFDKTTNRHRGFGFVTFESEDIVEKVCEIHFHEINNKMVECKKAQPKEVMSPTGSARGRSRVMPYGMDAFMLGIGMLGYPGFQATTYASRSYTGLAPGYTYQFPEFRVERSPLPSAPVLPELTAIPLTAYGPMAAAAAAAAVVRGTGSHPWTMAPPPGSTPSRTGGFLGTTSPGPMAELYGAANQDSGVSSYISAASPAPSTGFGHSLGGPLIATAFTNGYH
For B1, the binding signal came out at 0.364 enrichment R.
To B2 belongs 1.02 enrichment R.
With B3 the figure was 0.658 enrichment R; with B4, 1.82 enrichment R.
To B5 belongs 0.361 enrichment R; to B6, 0.757 enrichment R.
As for B7, the binding signal amounted to 0.774 enrichment R.
For B8, the binding signal is 0.364 enrichment R.
To B9 belongs 0.782 enrichment R.
In turn, B10 yielded a binding signal of 0.568 enrichment R.
To B11 belongs 0.304 enrichment R; to B12, 0.811 enrichment R.
B13: the binding signal was determined as 3.09 enrichment R.
Consider B14, for which the binding signal worked out at 0.379 enrichment R.
As to B15, the binding signal was determined as 3.5 enrichment R.
With B16 the figure was 0.346 enrichment R; with B17, 3.28 enrichment R; with B18, 0.992 enrichment R.
The molecule B19 showed a binding signal of 0.344 enrichment R.
With B20 the figure was 0.839 enrichment R.
With B21 the figure was 0.539 enrichment R.
B22: the binding signal worked out at 0.755 enrichment R.
